Measurements from ChEMBL document CHEMBL3826960, “Robust design of some selective matrix metalloproteinase-2 inhibitors over matrix metalloproteinase-9 through in silico/fragment-based lead identification and de novo lead modification: Syntheses and biological assays” (Bioorg Med Chem, 2016).

Tests used:
[1] = molecular target: 72 kDa type IV collagenase (Homo sapiens, UniProt P08253)
[2] = molecular target: Macrophage metalloelastase (Homo sapiens, UniProt P39900)
Sequence of Macrophage metalloelastase (P39900 whole entry): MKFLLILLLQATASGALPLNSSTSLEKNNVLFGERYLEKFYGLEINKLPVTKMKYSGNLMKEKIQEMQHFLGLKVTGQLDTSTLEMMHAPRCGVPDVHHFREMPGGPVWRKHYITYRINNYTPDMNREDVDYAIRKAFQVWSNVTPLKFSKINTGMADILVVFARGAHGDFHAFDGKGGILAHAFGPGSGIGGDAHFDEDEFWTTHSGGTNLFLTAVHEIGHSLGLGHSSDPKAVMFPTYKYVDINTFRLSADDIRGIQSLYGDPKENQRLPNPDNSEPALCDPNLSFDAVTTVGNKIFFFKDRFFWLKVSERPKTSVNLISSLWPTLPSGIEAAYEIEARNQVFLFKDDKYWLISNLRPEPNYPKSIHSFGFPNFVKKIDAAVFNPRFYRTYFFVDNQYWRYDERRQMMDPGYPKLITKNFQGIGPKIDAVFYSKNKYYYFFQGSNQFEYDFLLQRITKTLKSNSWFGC

Sequence of 72 kDa type IV collagenase (P08253 whole entry): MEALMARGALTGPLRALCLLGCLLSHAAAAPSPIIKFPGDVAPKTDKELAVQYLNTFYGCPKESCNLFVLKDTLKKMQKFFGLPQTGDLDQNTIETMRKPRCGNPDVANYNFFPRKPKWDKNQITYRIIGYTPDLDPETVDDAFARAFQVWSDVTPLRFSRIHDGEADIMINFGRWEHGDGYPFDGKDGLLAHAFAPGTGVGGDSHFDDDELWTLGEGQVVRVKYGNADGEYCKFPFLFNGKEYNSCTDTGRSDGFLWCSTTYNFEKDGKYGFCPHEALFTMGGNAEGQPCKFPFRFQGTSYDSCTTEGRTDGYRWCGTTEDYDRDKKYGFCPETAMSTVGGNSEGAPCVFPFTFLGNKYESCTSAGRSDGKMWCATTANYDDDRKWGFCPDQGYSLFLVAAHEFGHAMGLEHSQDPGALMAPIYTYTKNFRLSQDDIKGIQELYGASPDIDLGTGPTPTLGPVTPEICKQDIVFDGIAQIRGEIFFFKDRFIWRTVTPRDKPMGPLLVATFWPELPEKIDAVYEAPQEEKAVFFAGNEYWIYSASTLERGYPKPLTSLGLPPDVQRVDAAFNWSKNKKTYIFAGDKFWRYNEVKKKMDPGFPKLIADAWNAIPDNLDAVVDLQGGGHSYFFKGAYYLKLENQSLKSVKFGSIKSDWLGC

Row | Structure (SMILES) | IC50 [1] [nM] | IC50 [2] [nM]
1 | O=C(CC[C@H](NS(=O)(=O)c1ccc(-c2ccccc2)cc1)C(=O)O)Nc1ccccc1 | 79 | –
2 | O=C(CC[C@H](NS(=O)(=O)c1ccc(-c2ccccc2)cc1)C(=O)O)NCCc1ccccc1 | 123 | –
3 | O=C(CC[C@H](NS(=O)(=O)c1ccc(C2CCCCC2)cc1)C(=O)O)NCc1ccccc1 | > 500 | –
4 | O=C(CC[C@H](NS(=O)(=O)c1ccc(-c2ccccc2)cc1)C(=O)O)NCc1ccc([N+](=O)[O-])cc1 | 291 | –
5 | CCCCCNC(=O)CC[C@H](NS(=O)(=O)c1ccc(-c2ccccc2)cc1)C(=O)O | 41 | –
6 | CCCCCNC(=O)CC[C@H](NS(=O)(=O)c1ccc(C2CCCCC2)cc1)C(=O)O | > 500 | –
7 | O=C(CC[C@H](NS(=O)(=O)c1ccc(-c2ccccc2)cc1)C(=O)O)NC1CCCCC1 | 30 | –
8 | O=C(CC[C@H](NS(=O)(=O)c1ccc(-c2ccccc2)cc1)C(=O)O)NCc1cc(C(F)(F)F)cc(C(F)(F)F)c1 | 51 | –
9 | O=C(NO)[C@@]1(NS(=O)(=O)c2ccc(Oc3ccc(F)cc3)cc2)C[C@H]2CC[C@@H](C1)O2 | 0.3 | –
10 | CC(C)(C)NC(=O)CC[C@H](NS(=O)(=O)c1ccc(-c2ccccc2)cc1)C(=O)O | 186 | –
11 | CCNC(=O)CC[C@H](NS(=O)(=O)c1ccc(-c2ccccc2)cc1)C(=O)O | 203 | –
12 | CCCCNC(=O)CC[C@H](NS(=O)(=O)c1ccc(-c2ccccc2)cc1)C(=O)O | 44.6 | –
13 | CNC(=O)CC[C@H](NS(=O)(=O)c1ccc(-c2ccccc2)cc1)C(=O)O | 843 | –
14 | CNC(=O)C(NC(=O)C(CCCc1ccc(-c2ccccc2)c(C(C)(C)C)c1)CC(=O)NO)C(C)(C)C (stereo not drawn) | 86 | –
15 | CC(C)NC(=O)CC[C@H](NS(=O)(=O)c1ccc(-c2ccccc2)cc1)C(=O)O | 208 | –
16 | O=C(CC[C@H](NS(=O)(=O)c1ccc(-c2ccccc2)cc1)C(=O)O)NCc1ccc(Cl)c(Cl)c1 | 806 | –

Row | Structure (SMILES) | IC50 [1] [nM] | IC50 [2] [nM]
17 | COc1ccc(CNC(=O)CC[C@H](NS(=O)(=O)c2ccc(-c3ccccc3)cc2)C(=O)O)cc1 | 193 | –
18 | CCCNC(=O)CC[C@H](NS(=O)(=O)c1ccc(-c2ccccc2)cc1)C(=O)O | 177 | 178
19 | CC(C)CNC(=O)CC[C@H](NS(=O)(=O)c1ccc(-c2ccccc2)cc1)C(=O)O | 98 | –
20 | COC(NC(=O)C(NC(=O)C(CCCc1ccc(-c2ccccc2)c(C)c1)CC(=O)O)C(C)(C)C)c1ccccc1 (stereo not drawn) | 34200 | –
21 | CCCCCCNC(=O)CC[C@H](NS(=O)(=O)c1ccc(-c2ccccc2)cc1)C(=O)O | 103 | –
22 | O=C(CC[C@H](NS(=O)(=O)c1ccc(-c2ccccc2)cc1)C(=O)O)NCc1ccccc1 | 24 | –
23 | O=C(CC[C@H](NS(=O)(=O)c1ccc(-c2ccc(Br)cc2)cc1)C(=O)O)NC1CCCCC1 | 672 | –
24 | CNC(=O)C(Cc1ccc(OC)cc1)NC(=O)C(CC(=O)NO)CC(C)C (stereo not drawn) | 6 | –
25 | CNC(=O)C(NC(=O)C(CCc1ccc(Cl)cc1)CP(=O)(O)Cc1ccc(Cc2ccccc2)cc1)C(C)(C)C (stereo not drawn) | 2.6 | –
26 | O=C(CC[C@H](NS(=O)(=O)c1ccc(-c2ccccc2)cc1)C(=O)O)NCc1ccccc1Cl | 31 | –
27 | O=C(CC[C@H](NS(=O)(=O)c1ccc(-c2ccccc2)cc1)C(=O)O)NCc1ccc(F)cc1 | 76 | –
28 | O=C(CC[C@H](NS(=O)(=O)c1ccc(-c2ccccc2)cc1)C(=O)O)NCc1ccc(Cl)cc1 | 263 | –
29 | O=C(CC[C@H](NS(=O)(=O)c1ccc(-c2ccc(Br)cc2)cc1)C(=O)O)NCc1ccccc1 | 419 | –
30 | CCCCCNC(=O)CC[C@H](NS(=O)(=O)c1ccc(-c2ccc(Br)cc2)cc1)C(=O)O | 472 | –
31 | NC(=O)CC[C@H](NS(=O)(=O)c1ccc(-c2ccccc2)cc1)C(=O)O | 885 | –
32 | CNC(=O)C(NC(=O)C(CCc1ccccc1)CP(=O)(O)Cc1ccc(Cc2ccccc2)cc1)C(C)(C)C (stereo not drawn) | 10 | –
